Measured values published in patent publication US20210253662A1, “Long-Acting Recombinant GLP1-Fc-CD47 Protein and Preparation and Use Thereof” (ZHEJIANG PALO ALTO PHARMACEUTICALS, INC, priority 2018, published 2021).
Where a chain is given by its changes, count along the chain named.

B1: recombinant protein self-L1 (Fc fusion)
chain: GNYTCEVTELTREGETIIELKGGGGGHGEGTFTSDVSSYLEEQAAKEFIAWLVKGGGGGGGSGGGGSGGGGSA[human IgG4 Fc with S228P F234A L235A (EU numbers) left out]
B2: recombinant protein L1-self-mu (Fc fusion)
chain: HGEGTFTSDVSSYLEEQAAKEFIAWLVRGAGGGGGSGGGGSGGGGSA[human IgG4 Fc with S228P F234A L235A (EU numbers) left out]GGGGGNYTCEVTELTREGETIIELK
B3: recombinant protein L1-mu (Fc fusion)
chain: HGEGTFTSDVSSYLEEQAAKEFIAWLVRGAGGGGGSGGGGSGGGGSA[human IgG4 Fc with S228P F234A L235A (EU numbers) left out]
B4: recombinant protein L1-self (Fc fusion)
chain: B2 chain with R28K, A30G
B5: L1-self: SEQ ID NO.: 13; self polypeptide (CD47 signal) introduced into the C-terminal of the L1 protein; tetramer (protein)
chain: B2 chain with R28K, A30G
modifications: tetramer; Recombinant protein L1-self
notes: self polypeptide (CD47 signal) introduced into the C-terminal of the L1 protein; tetramer
B6: self-L1: SEQ ID NO.: 14; self polypeptide (CD47 signal) introduced into the N-terminal of the L1 protein; tetramer (protein)
chain: B1 chain
modifications: tetramer; Recombinant protein self-L1
B7: L1-self-mu: SEQ ID NO.: 15; self polypeptide introduced into the C-terminal of the recombinant protein L1-mu; tetramer (protein)
chain: B2 chain
modifications: tetramer; Recombinant protein L1-self-mu
notes: self polypeptide introduced into the C-terminal of the recombinant protein L1-mu; tetramer

Tests used:
human GLP-1 receptor = human GLP-1 receptor (human, UniProt P43220 24-463); experiment: cell-based or functional assay
[1] = Stability in rat serum in vitro, read as remaining activity in activating hGLP-1R; format: in vitro ADME; settings: for Stability in rat serum in vitro compared with positive control L1: in words; for Decrease in activity after 7 days of incubation in serum: rat serum, 37° C., activity at 0.03 nM, day 0 as 100%
Source text: The decay rate of protein activity indirectly reflects the stability of the protein in the serum.

[2] = molecular target: human GLP-1 receptor (hGLP-1R) (Homo sapiens, UniProt P43220); settings: hGLP-1R activation, in words
human GLP-1 receptor (hGLP-1R), sequence (P43220 24-463): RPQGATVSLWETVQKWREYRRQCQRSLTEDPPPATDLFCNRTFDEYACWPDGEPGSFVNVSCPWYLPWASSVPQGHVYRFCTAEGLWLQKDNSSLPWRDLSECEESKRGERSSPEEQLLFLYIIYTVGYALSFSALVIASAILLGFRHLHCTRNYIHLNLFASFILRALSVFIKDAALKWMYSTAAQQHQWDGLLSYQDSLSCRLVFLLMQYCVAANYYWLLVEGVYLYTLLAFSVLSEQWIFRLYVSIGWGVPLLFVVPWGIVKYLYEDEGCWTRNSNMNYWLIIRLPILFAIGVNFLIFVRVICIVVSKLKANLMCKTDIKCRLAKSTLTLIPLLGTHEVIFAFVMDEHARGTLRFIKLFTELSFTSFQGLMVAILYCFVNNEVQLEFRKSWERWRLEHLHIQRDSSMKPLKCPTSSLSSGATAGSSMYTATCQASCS

Male C57BL/KsJ mice = experiment: Intraperitoneal glucose tolerance test (IPGTT) after a single s.c. dose; format: in vivo
Experimental: Male C57BL/KsJ mice of 6 weeks old are randomized into a vehicle control group, a positive drug group and a test protein group according to body weights and blood glucose levels, and are subcutaneously (s.c.) injected with corresponding drugs. An intraperitoneal glucose tolerance test (IPGTT) is performed after dosing for a period of time following the steps as follows: fast the mice for 6 h, collect blood samples from tail veins of the mice in each group before the test, measure the blood glucose levels with a Roche ACCU-CHEK blood glucose meter and record the results at a −60 min time point; measure blood glucose levels again at 0 min in each group before intraperitoneally injecting 2 g/kg glucose (body weight), afterwards measure and record blood glucose levels of mice in each group at 15 min, 30 min, 60 min and 120 min. An IPGTT curve is plotted based on the blood glucose levels to calculate the areas under curve (AUC0-120 min (mM*min)), and the differences are statistically analyzed using the t-test.

Row | Molecule | EC50 (pM) of Activity to Activate (hGLP-1R; CRE-NanoLuc luciferase reporter in AD293 cells, concentration by monomer molecular weight) (human GLP-1 receptor) [pM] | Cellular activity compared with the L1 protein [2] | further results
1 | B1 | 24300 |  | 
2 | B2 | 16.9 |  | 
3 | B3 | 83.6 |  | 
4 | B4 | 45.6 |  | 
5 | B5 |  | no significant improvement | Stability in rat serum in vitro compared with positive control L1 [1]: much more stable than the positive control L1; Decrease in activity after 7 days of incubation in serum [1]: 27.8%
6 | B6 |  | decreased | 
7 | B7 |  | enhanced, higher than that of the L1 protein | Stability in rat serum in vitro compared with positive control L1 [1]: much more stable than the positive control L1; Decrease in activity after 7 days of incubation in serum [1]: 29.9%; Hypoglycemic duration in animals (Male C57BL/KsJ mice; in words, comparison between proteins): longer hypoglycemic duration than the L1; Decrease of area under curve (AUC) in blood glucose vs solvent control group (Male C57BL/KsJ mice; seven days after a single dose, s.c. 30 nmol/kg, IPGTT AUC0-120 min): 20%; Hypoglycemic activity (AUC) ten days post-dose (Male C57BL/KsJ mice; ten days after a single dose, s.c. 30 nmol/kg, IPGTT): significant hypoglycemic activity is still observed
